# In all, about 33,000 sequences were measured (“E-score (-0.5 to 0.5)”: median about -0.054, highest 2% from about 0.39 on). This is one part of the list.
# Target: Ylr278c (UniProt Q05854)
# Experiment: PBM E-score (8-mer binding enrichment) (E-score (-0.5 to 0.5)); higher = stronger / more preferred TF binding; most listed sequences are background and not binding sites
# Conditions: protein concentration: 200 nM; construct: GST-DNA-binding domain
# Summary of the method: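 GST-tagged yeast TFs (full-length or DNA-binding domain) were made by PURExpress in vitro transcription/translation and applied at about 100-200 nM to universal all-10-mer Agilent arrays. The arrays were made double-stranded by primer extension, on fresh or once-stripped slides. Bound protein was detected with fluorescent anti-GST, and scans were normalised with masliner. Each ungapped eight-base word, pooled with its reverse complement, received an E-score (modified Wilcoxon-Mann-Whitney statistic) from the Universal PBM Analysis Suite.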
row,Sequence,PBM E-score
1,ACCTTACA,-0.138
2,CCCTTGTC,-0.128
3,GGAGATAA,0.256
4,ATAGTGCC,-0.0523
5,AGGATCCC,0.113
6,GCTCCTAA,-0.108
7,ACACGCAG,-0.163
8,GGGATAAA,0.134
9,GGTCAAAC,-0.0475
10,CCCTCGCA,-0.107
11,GCAACTGA,-0.127
12,GCTCAGAA,-0.103
13,GTCGGAAC,0.413
14,ACTTTAAG,0.0426
15,CCTTTTGC,-0.121
16,ACGCCTGC,-0.274
17,GCATCCGC,0.0589
18,AAACAGAA,-0.207
19,CCTCACTA,-0.103
20,ATCGGCCC,0.229
21,TATTAGGA,-0.173
22,CGGCGTAA,0.247
23,CTCATACA,-0.0546
24,AATTCCAA,-0.00843
25,CTTCCAGA,-0.233

row,Sequence,PBM E-score
1,GCATGTGA,-0.13
2,GACATGCA,-0.0798
3,ATGGGTCG,0.21
4,GTCGCATA,-0.0845
5,CGACAGCA,0.0157
6,AGGCCTTC,-0.221
7,CGACCTTC,0.194
8,ACCTGAGT,-0.0894
9,AGATACAG,-0.0599
10,GATCTCGA,0.0789
11,ACTGGCAG,-0.0279
12,ATGAATGG,0.115
13,CGCAATTC,0.201
14,ACGCGTAA,-0.088
15,AGGCTCAA,-0.218
16,ACCCGGAT,0.238
17,CGGACCAG,0.295
18,ACACGGCG,0.216
19,CAAAGCGC,0.188
20,ATCCCGCC,0.297
21,ACCACAGG,-0.095
22,GGCTATAA,-0.0937
23,AGATAGAT,-0.279
24,ATCTCACG,0.112
25,ATCCTTAG,-0.193

row,Sequence,PBM E-score
1,AACCTCAT,-0.143
2,GCAACAGA,0.0725
3,GTATACGA,-0.0238
4,AATGAACA,-0.117
5,CAAAAGGC,-0.115
6,TTAAACAA,-0.131
7,CATCCGGG,0.3
8,CATTTTCC,0.198
9,GGCACGCC,-0.0493
10,ATGTATAC,-0.0561
11,CATTGATC,0.102
12,GAACTTTA,0.0654
13,CGGGCCTA,0.198
14,GACGAGCC,-0.155
15,CGGCCACA,0.191
16,GCATGCTA,-0.16
17,ACGACCCA,-0.0581
18,AACCGCAA,0.16
19,GTCTCTAA,-0.172
20,CCAAAGCC,-0.0219
21,ACACAGTC,-0.116
22,CCGTCTAG,0.0867
23,CTGATGCC,-0.0342
24,CTTTCTCC,0.227
25,CTAATCAC,0.0671

row,Sequence,PBM E-score
1,ACTACATA,-0.19
2,GCCCTAAC,0.00741
3,AAGGACTG,-0.215
4,GTTCCCGA,0.139
5,CTCATGGC,-0.0203
6,TAGCTATA,-0.239
7,CTCACCAA,0.0299
8,ACGTGCGA,-0.0587
9,ATGGAATC,-0.0141
10,CAGCACCC,-0.0668
11,GCTGGCAC,-0.288
12,ATTTGTCC,0.277
13,ATCAAGAG,-0.105
14,ATTGGACC,0.0491
15,CCTCAGCC,-0.106
16,GGTCAACC,-0.0377
17,GAGAGCAA,-0.0652
18,AGCTTTAA,-0.101
19,GAATCGTA,-0.138
20,AGATTACA,-0.0105
21,GCTAAACC,0.0263
22,ACTAAGAC,-0.186
23,GTTCGCGA,0.0355
24,GAGCCGCC,0.245
25,CTGTCCCA,-0.212

row,Sequence,PBM E-score
1,CTCGTCAA,-0.234
2,AGTTATAC,0.0158
3,ACCGAGAC,-0.0312
4,GCATGTCA,-0.0539
5,CGTCGAAA,0.0207
6,GCTTCAAC,-0.137
7,GGCCGAAC,0.199
8,CCCTCCGG,0.388
9,CCAAAGAG,-0.199
10,TCGTATAA,-0.0438
11,AAATAACC,-0.114
12,AATTTTGG,-0.00227
13,GAGGTGAA,-0.0886
14,CAACCGTG,-0.257
15,CCCACATC,-0.143
16,ACGAGTAC,-0.139
17,AGAGGAGG,-0.278
18,ATACGCCA,-0.0814
19,CACGCCCA,-0.101
20,AAGGAATA,-0.00521
21,CGGCGGGA,0.36
22,ACATCTCT,-0.0918
23,AACATTTG,-0.138
24,CTAGCTTC,-0.0742
25,AGTCGTCA,-0.279

row,Sequence,PBM E-score
1,GGCAAAAA,0.186
2,AAAACGCG,0.0654
3,TGGCCAAA,-0.289
4,ACCACCTC,0.142
5,GGAGGGTA,0.126
6,CCCTACAA,-0.141
7,CGCCAGTA,-0.125
8,GATCGTAC,0.0607
9,AAGGTCCG,0.426
10,GATTCGCC,0.0728
11,CAGTTTCC,0.181
12,CGGCATCC,0.25
13,AAGCAGGT,-0.164
14,ACCGGAGC,0.448
15,CGAATACG,0.0905
16,CAACCTCG,0.0293
17,CTGTAAAC,-0.287
18,TAGAGGGA,-0.315
19,CGTATACC,-0.142
20,CTTCCCTC,-0.139
21,ACCTCCCT,-0.205
22,ACGCCACA,0.013
23,CCAATCTA,-0.00777
24,AATCCCGC,0.344
25,AGTAAGTC,-0.0222

row,Sequence,PBM E-score
1,GCCTGACA,-0.0918
2,CTATCTAC,-0.0559
3,TCTGTGCA,-0.0797
4,TACCAACA,-0.28
5,TGGAGAAA,-0.0369
6,AGTCATCA,-0.188
7,ATCGACTC,-0.189
8,CGTCGCAG,-0.192
9,AGCCCAAC,-0.323
10,GGATGGTA,-0.0894
11,GGACATTA,0.336
12,ACGTAACC,-0.105
13,CAATGATG,-0.0452
14,CCCGGTGA,0.257
15,ACTGACCG,0.11
16,CATCTTGA,-0.0937
17,ATCTTGAG,-0.166
18,GGGACGAA,-0.0291
19,CAGGGCGA,-0.0431
20,GGAGATAC,0.305
21,CGTGACAA,0.0435
22,CTTCCCGA,0.125

# — the supplement of paper PMC3334620
